PMC3958441, “Isl1 and Pou4f2 Form a Complex to Regulate Target Genes in Developing Retinal Ganglion Cells” (PLoS ONE, 2014)
Results are given in words; binding and its absence hold for the method and conditions named. Binding seen in cells or lysates may run through a third protein. Some binding calls cover weakened binding; strength is not graded here. Sequences can lack the tags named with a protein.

T1: GST-Pou4f2 fusion protein (mouse) (UniProt Q63934)
T1 sequence: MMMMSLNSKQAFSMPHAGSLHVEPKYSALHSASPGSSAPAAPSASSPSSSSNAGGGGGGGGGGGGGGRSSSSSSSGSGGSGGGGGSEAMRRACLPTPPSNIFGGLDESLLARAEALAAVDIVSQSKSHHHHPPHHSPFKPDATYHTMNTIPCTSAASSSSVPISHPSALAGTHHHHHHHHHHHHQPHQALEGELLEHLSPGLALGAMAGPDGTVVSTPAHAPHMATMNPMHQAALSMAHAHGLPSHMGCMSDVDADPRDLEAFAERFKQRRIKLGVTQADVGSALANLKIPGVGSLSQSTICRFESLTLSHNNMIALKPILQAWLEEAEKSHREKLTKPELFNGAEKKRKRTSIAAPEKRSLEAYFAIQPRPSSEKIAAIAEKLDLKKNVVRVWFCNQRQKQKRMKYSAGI

B1: Isl1, full-length, His-tagged (natural protein, mouse, UniProt P61372 1-349, looked up)
chain: MGDMGDPPKKKRLISLCVGCGNQIHDQYILRVSPDLEWHAACLKCAECNQYLDESCTCFVRDGKTYCKRDYIRLYGIKCAKCSIGFSKNDFVMRARSKVYHIECFRCVACSRQLIPGDEFALREDGLFCRADHDVVERASLGAGDPLSPLHPARPLQMAAEPISARQPALRPHVHKQPEKTTRVRTVLNEKQLHTLRTCYAANPRPDALMKEQLVEMTGLSPRVIRVWFQNKRCKDKKRSIMMKQLQQQQPNDKTNIQGMTGTPMVAASPERHDGGLQANPVEVQSYQPPWKVLSDFALQSDIDQPAFQQLVNFSEGGPGSNSTGSEVASMSSQLPDTPNSMVASPIEA
notes: Isl1, mouse, full-length coding region in pET-28a(+); 349 a.a; source: E. coli, in lysate (pull-down); purified on His SpinTrap columns (EMSA); not shown: His tag, C-terminal, kept
B2: Isl2, full-length (protein, UniProt Q9CXV0 1-359)
chain: MVDIIFHYPFLGAMGDHSKKKPGTAMCVGCGSQIHDQFILRVSPDLEWHAACLKCAECSQYLDETCTCFVRDGKTYCKRDYVRLFGIKCAQCQVGFSSSDLVMRARDSVYHIECFRCSVCSRQLLPGDEFSLREHELLCRADHGLLLERAAAGSPRSPGPLPGARGLHLPDAGSGRQPSLRTHVHKQAEKTTRVRTVLNEKQLHTLRTCYAANPRPDALMKEQLVEMTGLSPRVIRVWFQNKRCKDKKKSILMKQLQQQQHSDKASLQGLTGTPLVAGSPIRHENAVQGSAVEVQTYQPPWKALSEFALQSDLDQPAFQQLVSFSESGSLGNSSGSDVTSLSSQLPDTPNSMVPSPVET
B3: Lhx2, full-length, His-tagged (protein, UniProt Q9Z0S2 1-406)
chain: MLFHSLSGPEVHGVIDEMDRRAKSEAPAISSAIDRGDTETTMPSISSDRAALCAGCGGKISDRYYLLAVDKQWHMRCLKCCECKLNLESELTCFSKDGSIYCKEDYYRRFSVQRCARCHLGISASEMVMRARDLVYHLNCFTCTTCNKMLTTGDHFGMKDSLVYCRLHFEALLQGEYPAHFNHADVAAAAAAAAAAKSAGLGSAGANPLGLPYYNGVGTVQKGRPRKRKSPGPGADLAAYNAALSCNENDAEHLDRDQPYPSSQKTKRMRTSFKHHQLRTMKSYFAINHNPDAKDLKQLAQKTGLTKRVLQVWFQNARAKFRRNLLRQENTGVDKTSDATLQTGTPSGPASELSNASLSPSSTPTTLTDLTSPTLPTVTSVLTSVPGNLEGHEPHSPSQTTLTNLF
B4: Isl1D3 (a.a. 170-349) (domain or fragment, mouse, UniProt P61372 170-349, looked up)
chain: LRPHVHKQPEKTTRVRTVLNEKQLHTLRTCYAANPRPDALMKEQLVEMTGLSPRVIRVWFQNKRCKDKKRSIMMKQLQQQQPNDKTNIQGMTGTPMVAASPERHDGGLQANPVEVQSYQPPWKVLSDFALQSDIDQPAFQQLVNFSEGGPGSNSTGSEVASMSSQLPDTPNSMVASPIEA
notes: Isl1, mouse, a.a; 170-349, only the homeodomain and the C terminal region, none of the Lim domains; source: E. coli, in lysate (pull-down); purified on His SpinTrap columns (EMSA); not shown: His tag, C-terminal, kept
B5: Isl1D4 (a.a. 146-349) (domain or fragment, mouse, UniProt P61372 146-349, looked up)
chain: PLSPLHPARPLQMAAEPISARQPALRPHVHKQPEKTTRVRTVLNEKQLHTLRTCYAANPRPDALMKEQLVEMTGLSPRVIRVWFQNKRCKDKKRSIMMKQLQQQQPNDKTNIQGMTGTPMVAASPERHDGGLQANPVEVQSYQPPWKVLSDFALQSDIDQPAFQQLVNFSEGGPGSNSTGSEVASMSSQLPDTPNSMVASPIEA
notes: Isl1, mouse, a.a; 146-349; source: E. coli, in lysate (pull-down); purified on His SpinTrap columns (EMSA); not shown: His tag, C-terminal, kept
B6: Isl1D5 (a.a. 74-349) (domain or fragment, mouse, UniProt P61372 74-349, looked up)
chain: LYGIKCAKCSIGFSKNDFVMRARSKVYHIECFRCVACSRQLIPGDEFALREDGLFCRADHDVVERASLGAGDPLSPLHPARPLQMAAEPISARQPALRPHVHKQPEKTTRVRTVLNEKQLHTLRTCYAANPRPDALMKEQLVEMTGLSPRVIRVWFQNKRCKDKKRSIMMKQLQQQQPNDKTNIQGMTGTPMVAASPERHDGGLQANPVEVQSYQPPWKVLSDFALQSDIDQPAFQQLVNFSEGGPGSNSTGSEVASMSSQLPDTPNSMVASPIEA
notes: Isl1, mouse, a.a; 74-349; source: E. coli, in lysate (pull-down); purified on His SpinTrap columns (EMSA); not shown: His tag, C-terminal, kept
B7: Lhx1, full-length, His-tagged (protein, UniProt P63006 1-406)
chain: MVHCAGCKRPILDRFLLNVLDRAWHVKCVQCCECKCNLTEKCFSREGKLYCKNDFFRCFGTKCAGCAQGISPSDLVRRARSKVFHLNCFTCMMCNKQLSTGEELYIIDENKFVCKEDYLSNSSVAKENSLHSATTGSDPSLSPDSQDPSQDDAKDSESANVSDKEGGSNENDDQNLGAKRRGPRTTIKAKQLETLKAAFAATPKPTRHIREQLAQETGLNMRVIQVWFQNRRSKERRMKQLSALGARRHAFFRSPRRMRPLVDRLEPGELIPNGPFSFYGDYQSEYYGPGGNYDFFPQGPPSSQAQTPVDLPFVPSSGPSGTPLGGLDHPLPGHHPSSEAQRFTDILAHPPGDSPSPEPSLPGPLHSMSAEVFGPSPPFSSLSVNGGASYGNHLSHPPEMNEAAVW

The binders below were run against T1, GST-Pou4f2 fusion protein (mouse) (assay: pull-down; GST pull-down: about 20 ug of GST or GST-fusion E. coli lysate and 20 ug of non-fusion protein lysate in 125 mM Tris-HCl, 150 mM NaCl, pH 8.0, 4 C; glutathione magnetic beads, 6 washes; Western blotting).

Row | Binder | binding
1 | B1 | binds
2 | B2 | binds
3 | B3 | binds
4 | B4 | binds
5 | B5 | binds
6 | B6 | binds
7 | B7 | no binding
